Sequences with one replicate were seen in a single cluster, so their values are uncertain.
System: ATP
Test: switch fluorescence ratio, 500 uM ATP over buffer (Cy3 cluster intensity, sum of 5 cycles each) (fold (ratio)); higher = stronger signal-on switching upon ATP binding; sequences stand for … in TCGTCGGCAGCGTCAGATGTGTATAAGAGACAGTTTTTTTTTTTTTTTTTTTTTTTTT…TC
Conditions: aptamer strand: ATP DNA aptamer (quencher-CACCTGGGGGAGTATTGCGGAGGAAGG + anchor), 100 nM annealed; ATP concentration: 500 uM; one replicate
Summary of the method: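 Five buffer/ATP imaging cycles were run on Cy3-labelled switching-strand clusters on a modified Illumina MiSeq flow-cell, with NaOH stripping and re-annealing between cycles. In each cycle, clusters annealed to 100 nM quencher-labelled ATP aptamer were imaged in selection buffer, then after 15 min with 500 uM ATP at 22 °C. Per cluster, the fluorescence ratio is summed target-cycle over summed buffer-cycle Cy3 intensity, averaged per switch-domain sequence. Only clusters within 100-1000 RFU were kept.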
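Note: ATP exposure 15 min at 22 °C before imaging.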

Sequence	switch fluorescence ratio
ATGAACTCTA	1.05
CTTTAAACCG	1.02
CTTCCTAGTG	1.13
CCTTTCATCA	1.01
TTATAGCTCG	1
GGTTTTAGAC	1.02
CTTAATGGT	1.03
GCTTGAGAGT	0.98
ACTGAGGCTC	1.01
TTACGACTCA	1.11
CCGTGGAGCC	1.01
TAATGTAGAC	0.951
GAGTGTTATT	1.01
TTAGGGGCCG	1.01
ATTTGAAGCT	0.843
ACCTAGGTA	1.04
TTGTTCTCTC	1.01
AGAAGAATTA	1.02
CTACGTCTCA	1.08
GTTAAACCCC	1.25
GTGGGGCTAA	1.02
CGCTTGATG	1.02
ATGAACAGGC	1.02

Sequence	switch fluorescence ratio
AGCCGCAGGA	1.59
TAGGGCCGTT	1
TAAGGTCGCT	0.991
CCAGCGCTGG	1
CTCGACGGTA	1.03
GACATAGCCG	1.02
ACAATGGGGT	1.01
TTCTCCACG	1.06
TTGGAAGGAG	0.984
AGTTCCTCAA	1.05
GGGGGGCGC	0.958
GAACACACCG	1.19
CCATGTCGTC	1.01
GAGTTTCCTT	1.03
TCGCACATTT	1.1
TTTCTTATGG	1
AGCCGAATT	0.983
CTCAAATTGG	1.03
ACGCGTTGGC	1.03
CAGTGCTTGT	0.975
ACGTGTACCA	1.2
TATGACTTCA	1.04
GGCAGAGTAT	1.02

Sequence	switch fluorescence ratio
GACTCAACGG	0.987
ATCCGTTTCT	1.03
CCTCTTGTTT	1.31
GTTACCGGCG	0.995
CGCAACATCA	1.34
TGACATGGAG	1
GATCTACTCG	0.99
GGCTTTAGAC	1
GTGGCAACCT	1.17
GTTATGGATG	0.967
CGAGCCGGAC	1.03
ATCAGTTACT	1.04
AACCTAATGG	0.996
AGGGTGATAA	1.01
GCATTCCGCT	1.17
TCGATCAAAA	1.03
AAGTGGTGAC	1
CGTATTCTAT	1.02
CGATAGGGAA	0.984
TAGTTCACTT	0.998
CGTCGCTTCC	1.74
CTCCAAAACT	1.38
ACGCTGTAGC	1.02

Sequence	switch fluorescence ratio
CGCGTCACTC	1.78
CATTGGTTCG	1.04
GCTTCACGCA	1.03
GGTTTACTGA	0.995
AAGTCAAACG	1.02
AATAATGCAG	1.03
TGAATCGCCA	1.04
ATTAGGGTAC	1.01
ATTGGGGGCT	0.985
GGCCCACAGA	0.974
TTCCACCCTT	1.02
GCCAAAGCGC	1.03
GAAGTATTTG	0.95
CGGGAAGTTG	0.943
GCTGCACGCC	1.04
TGTTAACGTG	0.961
GCCCTATTGA	0.991
GTTGACTCGT	1
CCGGGTCTCA	1.06
TTCATTCAAT	1.02
AATTGAGGG	1.01
CGTGCCTACA	1.02
TGGCGGTTTC	1.14

Sequence	switch fluorescence ratio
CGGCCTCTTT	0.988
CAAATACAGT	0.996
GTTTTGCTCT	0.981
TGCACGCGGA	0.999
GATGTCCCGA	1.01
GTGGTATGGG	0.965
AGGAAACTCA	1
TCAGAGTCGG	1
GGAGACTTGT	0.997
GCATGGTGGG	1.01
ATTACACACA	1.14
ATTGCAGAGT	0.953
CAGAAATTCA	0.969
TTCCCGGCGA	1.48
GGTCACGGGA	0.997
GCTTCAAAT	1.01
AATTTTAGC	1.01
ACACGCCG	1.12
TAAGGCCGCA	1.08
GCGTCGATGC	1.07
GAAATACGAT	1.13
GAACAAAGGC	1.02
TTTTCGATTC	1.05

Sequence	switch fluorescence ratio
TCGAGCAAAG	2.66
TATGCTGGCA	1.04
AAGATAACTC	1.03
AAGTCCTAGT	0.953
CCTGGCACGA	1.22
CGTCAGCCGT	0.995
TGGTGTTATA	1.01
TTTAACTGTT	1.02
ATAGAGCTCA	0.999
CGTCTCATTC	1.08
CGTATTGCTT	0.97
CATATCGAGG	0.992
GGACCTGGT	0.988
TCCAGGCCTT	0.996
GTTCTTTCTA	1
GGTACTTGCG	1.02
GAACGGGGCT	0.973
CTCTGATACT	1.32
CGGGAGAAGA	0.975
TACTTACGG	1.52
GCGTACAGCA	1.01
TTGAGAGCTA	0.973
ACAAGAGGAT	0.989

Sequence	switch fluorescence ratio
AGACTCGTAA	1.07
AGAGGGCAGT	1.34
TCGGAGATCA	1.02
GCCTTCACTA	1.03
TAACAGCCTT	1.02
GAGCCAGCTT	0.978
TTGTGCCAGA	0.995
AAGTGAATCT	1.04
CTCCACATTT	1.64
GACGTTGGC	1.02
GCCGGCTACA	0.999
TTTTAGGGAC	0.976
GACGATACTA	1.38
TATTTAGCGC	0.984
GGCTCTTTCG	0.984
GGCGCTTCG	1.02
AAACAGAAAC	0.999
GTTTGTGGCT	0.973
AAATTCGTAA	1.06

— the supplement of paper PMC10126150
